Measured values reported in PubChem BioAssay (NCI).
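All cell lines were grown in 96-well plates and treated with compound for 48 hours. Abbreviation: GI50, concentration required for 50% inhibition of growth.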 Some entries of the source have several records that differ or are many. The list is limited to them. An entry can have further records. For some of these results: The tests behind the records often covered other concentration ranges, not given here; a value can be the end of its range. Marks in square brackets tell the records apart. The letters are not those of the source and start again with each entry.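 Definition used: TGI = concentration required for complete inhibition of growth.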 For some of these results: Results that share an entry repeat one measurement in other runs, samples, wells, individuals or studies.

Legend:
Experiment in all cases: growth of human tumour cells (NCI), 48 h
ACHN renal = test system: ACHN renal
CAKI-1 renal = test system: CAKI-1 renal
CCRF-CEM leukemia = test system: CCRF-CEM leukemia
DU-145 prostate = test system: DU-145 prostate
HCC-2998 colon = test system: HCC-2998 colon
HCT-15 colon = test system: HCT-15 colon
HL-60(TB) leukemia = test system: HL-60(TB) leukemia
HOP-62 NSCLC = test system: HOP-62 NSCLC
HS 578T breast = test system: HS 578T breast
HT29 colon = test system: HT29 colon
MCF7 breast = test system: MCF7 breast
MOLT-4 leukemia = test system: MOLT-4 leukemia
NCI/ADR-RES ovarian = test system: NCI/ADR-RES ovarian
OVCAR-8 ovarian = test system: OVCAR-8 ovarian
RPMI-8226 leukemia = test system: RPMI-8226 leukemia
SF-268 CNS = test system: SF-268 CNS
SF-295 CNS = test system: SF-295 CNS
SK-MEL-28 melanoma = test system: SK-MEL-28 melanoma
SK-OV-3 ovarian = test system: SK-OV-3 ovarian
SN12C renal = test system: SN12C renal
SNB-19 CNS = test system: SNB-19 CNS
SR leukemia = test system: SR leukemia
SW-620 colon = test system: SW-620 colon
U251 CNS = test system: U251 CNS

`CC(C)C[C@H](NC(=O)[C@H](Cc1ccccc1)NC(=O)c1cnccn1)B(O)O` was tested, and the TGI (ACHN renal) was 663 nM, > 100 µM [sample A] and 632 nM [sample B], the TGI (CAKI-1 renal) was 19 nM [sample A] and 910 nM [sample B] and the TGI (CCRF-CEM leukemia) was 44.5 nM [sample A, mean of 4 tests] and > 100 µM [sample B, mean of 3 tests]. The TGI (DU-145 prostate) was 199 nM, 4.28 µM [sample A] and 17.3 µM [sample B], the TGI (HCC-2998 colon) was 1.31 nM [sample A] and 16.6 nM [sample B] and the TGI (HCT-15 colon) was 25.2 nM [sample A] and 3.09 µM [sample B]. The TGI (HL-60(TB) leukemia) was 23.4 nM, > 100 µM [sample A] and 856 nM [sample B], the TGI (HOP-62 NSCLC) was 14.9 nM, 41 nM [sample A] and 312 nM [sample B] and the TGI (HS 578T breast) was 87.3 nM [sample A, mean of 4 tests] and 9.78 µM [sample B, mean of 3 tests]. For the same compound, the TGI (HT29 colon) was 6.61 nM [sample A] and 246 nM [sample B], the TGI (MCF7 breast) was 759 nM, > 100 µM [sample A] and > 73.8 µM [sample B] and the TGI (MOLT-4 leukemia) was 165 nM [sample A] and > 100 µM [sample B]. For the same compound, the TGI (NCI/ADR-RES ovarian) was 195 nM, > 100 µM [sample A] and > 100 µM [sample B], the TGI (OVCAR-8 ovarian) was 114 nM [sample A, mean of 4 tests] and > 11.5 µM [sample B, mean of 3 tests] and the TGI (RPMI-8226 leukemia) was 22.7 nM [sample A] and 664 nM [sample B]. For the same compound, the TGI (SF-268 CNS) was 10.8 nM [sample A] and 410 nM [sample B], the TGI (SF-295 CNS) was 13 nM, 154 nM [sample A] and 24.3 nM [sample B] and the TGI (SK-MEL-28 melanoma) was 3.16 nM [sample A] and 18.9 µM [sample B]. For the same compound, the TGI (SK-OV-3 ovarian) was 168 nM, > 100 µM [sample A] and 553 nM [sample B], the TGI (SN12C renal) was 9.79 nM, < 10.7 nM [sample A] and 184 nM [sample B] and the GI50 (SNB-19 CNS) was 190 nM [sample A, 1 test] and 3.49 nM [sample A, mean of 4 tests] and < 10.9 nM [sample B, mean of 3 tests]. For the same compound, the TGI (SNB-19 CNS) was > 100 µM [sample A, 1 test] and 896 nM [sample A, mean of 4 tests] and > 100 µM [sample B, mean of 3 tests], the TGI (SR leukemia) was 86.7 nM [sample A] and > 100 µM [sample B] and the TGI (SW-620 colon) was 15.6 nM [sample A] and 277 nM [sample B]. The TGI (U251 CNS) was 111 nM, 74.7 nM [sample A] and 1.28 µM [sample B].
